Drawing on PubChem BioAssay AID1347044 (National Center for Advancing Translational Sciences (NCATS), 2019), this text covers CC50 for 38 molecules.

The structures appear in SMILES notation. Where “and” joins values, the source holds several entries; their conditions need not be identical. Equal values may be shown once. Some of the results follow. Shown are side measurements of this screen, not its main read-out; they come without a call. Compounds called inactive in the main read-out are mostly missing here. Potencies come from curve fits of mixed quality, noted in brackets.
Tags describe the fitted curve by direction and shape.

This assay in a line: Natriuretic polypeptide receptor (hNpr1) antagonism - Confirmation. Further: nearly all actives have a fitted effect of over 70% in size. Particulars: HEK293 hNpr1 cGMP GloSensor luminescence, ANP-stimulated; measured here: HEK-hNpr1 cytotoxicity, CellTiter-Glo. In outline: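 HEK293 cells expressing hNpr1 and the pGS-40F GloSensor cGMP sensor, loaded with 2% GloSensor reagent for 2 h, then treated 30 min with compound at room temperature. Luciferase luminescence read before and 20 min after 0.1 nM hNppA stimulation.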
For `COc1cccc(CN2CCN(c3nc4c(s3)c(C)nn4C)CC2=O)c1`, the 50% cytotoxic concentration (CC50) is 21.7 µM [falling, partial curve].

As to `Cc1ccc2nc(C3CCCN(Cc4ccc(C#N)cc4)C3)[nH]c(=O)c2c1` (stereo not drawn), the CC50 was 21.7 µM [falling, partial curve]. Take `CC(C)c1ccc(CNC(=O)c2ccc(CN3C(=O)NC4(CCOCC4)C3=O)cc2)cc1`: the 50% cytotoxic concentration (CC50) was 24.3 µM [falling, partial curve, poor fit]. On to `COc1cccc(CC(=O)N2CCCN(c3cc(-c4ccc(Br)cc4)[nH]n3)CC2)c1`, for which the CC50 was 24.3 µM [falling, partial curve]. `O=C(c1ccncc1)N1CC2CCC(C1)N2Cc1ccc(-c2ccsc2)cc1`: the CC50 was 6.85 µM [falling, full curve] and 6.85 µM [falling, partial curve]. Take `CC(C)(C)C(=O)N[C@H]1C[C@@H](Cc2cc(CN3CCN(c4ccccc4)CC3)on2)C1(C)C`: the half-maximal cytotoxic concentration (CC50) is 17.2 µM [falling, partial curve].

In the case of `O=C(c1ccc(F)c(Cl)c1)N1CCC(n2cc(-c3nc(-c4ccccc4)no3)nn2)CC1`, the CC50 was 24.3 µM [falling, partial curve]. As for `O=C(c1ccccc1)N1CCN(c2cc(-c3ccc(Cl)cc3)[nH]n2)CC1`, the CC50 was 34.3 µM [falling, single point]. As for `CN(C)c1ccc(CN[C@H]2CO[C@H]3[C@@H]2OC[C@H]3OC(=O)Nc2ccc(Oc3ccccc3)cc2)cc1`, the figure is 19.3 µM [falling, partial curve]; as for `COc1c(C)cccc1C(=O)N1CCOC(c2ccc(Cl)c(Cl)c2)C1` (stereo not drawn), 13.7 µM [falling, partial curve]; as for `O=C1c2cnc(-c3ccc(Cl)cc3)nc2OCCN1Cc1ccccc1`, 39.6 µM [falling, partial curve]. For the molecule `CCCOc1ccccc1C(=O)N1CCc2onc(-c3ccccc3)c2C1`, the CC50 is 38.5 µM [falling, single point]. For the molecule `O=C(Cc1ccccc1Cl)N1CCC(Cc2nc(-c3ccc(F)cc3)no2)CC1`, the CC50 is 27.3 µM [falling, single point]. As for `CCc1ccc(NC(=O)c2cc3n(n2)CC(c2ccc(Cl)cc2)OC3)cc1` (stereo not drawn), the figure is 24.3 µM [falling, partial curve, poor fit].

For the molecule `CC(C)c1ccc(NC(=O)N[C@H]2CO[C@H]3[C@@H]2OC[C@H]3OC(=O)Nc2ccc(Oc3ccccc3)cc2)cc1`, the CC50 was 17.2 µM [falling, partial curve]. `CCOc1ccc(C(=O)N2CCN(c3cc(-c4ccc(Cl)cc4)[nH]n3)CC2)cc1`: the 50% cytotoxic concentration (CC50) is 15.3 µM [falling, partial curve]. Turning to `CC1(C(=O)NCc2ccc3c(c2)OCO3)CCc2cnc(NCc3ccccc3)nc21` (stereo not drawn), the cytotoxic concentration (CC50) is 35.3 µM [falling, partial curve]. `O=C(Nc1cccc(F)c1)C1CCN(c2cc(C(F)(F)F)ncn2)CC1`: the half-maximal cytotoxic concentration (CC50) is 19.3 µM [falling, partial curve]. As for `Clc1ccc(CN2CCC3(CC2)CC(c2cccnc2)=NO3)cc1`, the CC50 was 24.1 µM [falling, partial curve].

For `Cc1ccc(OCC(=O)N2CCCC(c3nn(C)c(=O)n3C(C)C)C2)cc1` (stereo not drawn), the CC50 was 27.3 µM [falling, single point].

For the molecule `COc1ccc(C(=O)N2CCCN(c3cc(-c4ccc(Br)cc4)[nH]n3)CC2)cc1F`, the half-maximal cytotoxic concentration (CC50) is 21.7 µM [falling, partial curve].

Take `COc1ccc(C)cc1NC(=O)Cn1c(N(C)Cc2ccccc2)nc(C)cc1=O`: the CC50 is 24.3 µM [falling, partial curve]. With `O=C(c1ccc(Cl)cc1)N1CCCC(n2cc(-c3nc(-c4ccccc4)no3)nn2)C1` (stereo not drawn), the half-maximal cytotoxic concentration (CC50) is 19.3 µM [falling, partial curve]. With `COc1ccc(NC(=O)c2cc3n(n2)CC(c2ccc(Br)cc2)OC3)cc1OC` (stereo not drawn), the cytotoxic concentration (CC50) is 30.6 µM [falling, single point]. In the case of `COc1ccc(N2CCN(c3nc(C(=O)NCc4cccc(C)c4)cs3)CC2)cc1`, the CC50 is 19.3 µM [falling, partial curve]. Consider `O=C(Nc1ccon1)[C@@H]1C[C@@H](c2ccc(F)cc2)N(Cc2ccccc2)C1`, for which the CC50 was 35.3 µM [falling, partial curve].

In the case of `O=C(c1ccc(F)c(F)c1)N1CCN(C(=O)c2nnn3c2COC(c2ccc(Cl)cc2)C3)CC1` (stereo not drawn), the half-maximal cytotoxic concentration (CC50) is 15.3 µM [falling, partial curve]. For the molecule `O=C1N(Cc2cccnc2)C[C@H]2CN(Cc3ccc(C(F)(F)F)cc3)CCN12`, the CC50 is 15.7 µM [falling, partial curve]. As for `CC1(C)[C@H](Cc2cc(-c3ccc(F)cc3)on2)C[C@@H]1NS(C)(=O)=O`, the CC50 was 35.3 µM [falling, single point].

Take `CC(=O)Nc1ccc(S(=O)(=O)N[C@H]2CO[C@H]3[C@@H]2OC[C@H]3OC(=O)Nc2ccc(Oc3ccccc3)cc2)cc1`: the cytotoxic concentration (CC50) is 12.2 µM [falling, partial curve]. Regarding `COc1ccc(C(=O)N2CCCN(c3cc(-c4ccc(F)cc4)[nH]n3)CC2)c(C)c1`, the CC50 was 13.7 µM [falling, partial curve]. With `Nc1nc(C2CC(O)C2)cc(N2CCC(Cc3ccc(F)cc3)CC2)n1` (stereo not drawn) the figure was 17.2 µM [falling, partial curve]; with `O=C(Cc1c[nH]c2ccccc12)N1CCCN(c2cc(-c3ccc(Br)cc3)[nH]n2)CC1`, 21.7 µM [falling, partial curve]; with `COc1cc(NC(=O)Cn2c(N(C)Cc3ccccc3)nc(C)cc2=O)cc(OC)c1`, 15.3 µM [falling, partial curve]. On to `CN(Cc1ccc(N2CCCCC2)cc1)C(=O)c1ccc2c(c1)C(O)CCCCCN2C` (stereo not drawn), for which the CC50 is 21.7 µM [falling, partial curve].

For the molecule `COc1ccc(-c2noc(CC3CCN(C(=O)Cc4ccccc4Cl)CC3)n2)cc1`, the cytotoxic concentration (CC50) is 21.7 µM [falling, partial curve].

Turning to `CC1=NS(=O)(=O)N(C)C=C1C(=O)OCc1nc(C2CCCCC2)no1`, the CC50 is 19.3 µM [falling, partial curve]. With `COc1ccc(CC(=O)NC2CCN(c3cc(-c4ccc(F)cc4)[nH]n3)C2)cc1OC` (stereo not drawn), the CC50 is 21.7 µM [falling, partial curve].
